{"source": "PubChem BioAssay AID1347120", "about": "(National Center for Advancing Translational Sciences (NCATS), 2019)", "note": "Among all 390,000 compounds or so, about 930 (0.24%) were called active. The inconclusive results got no clear call from the source; some entries with a clear call stand among them for comparison. The call rests on the fitted dose curve; in most records, active means well fitted activation curve with a large enough effect; inconclusive means small, poorly fitted or top-dose-only effect; inactive means no such curve, though single readings can be large or run the other way. Potencies of inconclusive entries are doubtful fits and often do not repeat. Potency means the concentration at half of the fitted maximal effect; tags describe the fitted curve by direction and shape."}
{"test": "qHTS for Suppressors of FUS Proteinopathy: Primary screen using FUS-linked yeast assay; further: nearly all actives have a fitted effect of over 55% in size;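 on growth rescue (activation): plate controls were DMSO vehicle for no effect and reference control for full effect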", "settings": "S. cerevisiae FUS-expressing, OD600, 24 h; Potency: growth rescue; growth rescue (activation): at 76.6 µM (top of the series)", "how_it_was_run": "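Yeast FUS proteinopathy model; galactose-induced FUS (2%), starting OD 0.005. Cpds in dilution series, 24hr, 30C, 99% humidity. Abs 600 nm growth. Pos ctrl CP55940 (top 92uM final); neg ctrl DMSO.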"}
{"smiles": "COc1ccccc1CN(Cc1ccco1)c1cnc(S(C)(=O)=O)nc1C(=O)Nc1cc(C)ccc1C", "Potency": "inconclusive: 31.6 µM [activator, single point]"}
{"smiles": "O=C(Nc1nc2cc3c(cc2s1)OCO3)C1CCCCC1", "growth rescue (activation)": "inactive: 3.08%"}
{"smiles": "C=CCn1c(=O)c(C(=O)NCCN(CC)CC)c(O)c2ccccc21", "Potency": "inconclusive: 4.47 µM [activator, single point]"}
{"smiles": "CCOC(=O)N1CCN(C(=O)c2cn(C)c(=O)c3c2c2ccccc2n3C)CC1", "growth rescue (activation)": "inconclusive: 16.9% [activator]"}
{"smiles": "COc1cc(CNc2ncnc3c2ncn3[C@H]2CN(Cc3ccc(Cl)cc3)C[C@@H](CO)O2)cc(OC)c1OC", "growth rescue (activation)": "inactive: 38.9%"}
{"smiles": "CCc1ccc(Oc2c(C(F)(F)F)oc3c(CN4CCN(C)CC4)c(O)ccc3c2=O)cc1", "growth rescue (activation)": "inactive: 0.255%"}
{"smiles": "CN1CCC(N[C@@H](Cc2c[nH]c3ccccc23)C(=O)NCC(c2ccccc2)c2ccccc2)(C(=O)NC2CCCCC2)CC1", "growth rescue (activation)": "inactive: 37.7%"}
{"smiles": "Cc1ccc2cc(C#N)c(N3CCCN(S(=O)(=O)c4ccccc4)CC3)nc2c1C", "Potency": "active: 6.31 µM"}
{"smiles": "COc1cc2c(cc1OC)/C(=C/c1ccc(Br)cc1)C(=O)OC2", "Potency": "inconclusive: 10 µM [activator, single point]"}
{"smiles": "CC1CCN(C(=O)CSc2nnc(CNc3ccc(F)cc3)n2Cc2ccco2)CC1", "Potency": "inconclusive: 50.1 µM [activator, single point]"}
{"smiles": "CN1CCN(c2nc(-c3ccco3)cc(C(F)(F)F)n2)CC1", "growth rescue (activation)": "inconclusive: 49.8% [activator]"}
{"smiles": "COC/C=C/C1=CC2=CC(=O)C(C)(OC(=O)c3cnc4ccccc4n3)C(=O)C2=CN1Cc1ccco1", "note": "(stereo not drawn)", "Potency": "inconclusive: 28.2 µM [activator, single point]"}
{"smiles": "COc1ccc(/C=N/NC(=O)c2cc3c(ccc4ccccc43)o2)c(OC)c1", "Potency": "inconclusive: 17.8 µM [activator, partial curve, poor fit]"}
{"smiles": "O=C(c1cccc(S(=O)(=O)N2CCN(c3ccccc3)CC2)c1)N1CCCCCCC1", "Potency": "inconclusive: 35.5 µM [activator, single point]"}
{"smiles": "C/C(=N\\NC(=O)COc1cccc(Cl)c1)c1ccc2c(c1)OCCO2", "growth rescue (activation)": "inactive: -7.74%"}
{"smiles": "CC(=O)N1CCN(c2ccc(NC(=O)COc3ccc(Cl)cc3Cl)cc2)CC1", "growth rescue (activation)": "inconclusive: 72.2% [activator]"}
{"smiles": "COc1ccc(-c2cn(-c3ccc(C)cc3)c(=O)n2CC(=O)Nc2cccc(F)c2)cc1", "Potency": "inconclusive: 50.1 µM [activator, single point]"}
{"smiles": "O=C(CC1(O)C(=O)Nc2ccccc21)c1ccc(-n2cccc2)cc1", "note": "(stereo not drawn)", "Potency": "inconclusive: 7.94 µM [activator, full curve]"}
